The whole screen tested about 310,000 compounds, of which about 2,200 (0.71%) showed an effect of 50% or more. The effect is printed as a negative number. The list shows a part of the results.
Target: human ether-à-go-go-related gene (hERG) potassium channel (human, UniProt Q12809)
Test: primary screen, population patch clamp on CHO cells stably expressing hERG

Sequence of human ether-à-go-go-related gene (hERG) potassium channel (Q12809 whole entry, looked up): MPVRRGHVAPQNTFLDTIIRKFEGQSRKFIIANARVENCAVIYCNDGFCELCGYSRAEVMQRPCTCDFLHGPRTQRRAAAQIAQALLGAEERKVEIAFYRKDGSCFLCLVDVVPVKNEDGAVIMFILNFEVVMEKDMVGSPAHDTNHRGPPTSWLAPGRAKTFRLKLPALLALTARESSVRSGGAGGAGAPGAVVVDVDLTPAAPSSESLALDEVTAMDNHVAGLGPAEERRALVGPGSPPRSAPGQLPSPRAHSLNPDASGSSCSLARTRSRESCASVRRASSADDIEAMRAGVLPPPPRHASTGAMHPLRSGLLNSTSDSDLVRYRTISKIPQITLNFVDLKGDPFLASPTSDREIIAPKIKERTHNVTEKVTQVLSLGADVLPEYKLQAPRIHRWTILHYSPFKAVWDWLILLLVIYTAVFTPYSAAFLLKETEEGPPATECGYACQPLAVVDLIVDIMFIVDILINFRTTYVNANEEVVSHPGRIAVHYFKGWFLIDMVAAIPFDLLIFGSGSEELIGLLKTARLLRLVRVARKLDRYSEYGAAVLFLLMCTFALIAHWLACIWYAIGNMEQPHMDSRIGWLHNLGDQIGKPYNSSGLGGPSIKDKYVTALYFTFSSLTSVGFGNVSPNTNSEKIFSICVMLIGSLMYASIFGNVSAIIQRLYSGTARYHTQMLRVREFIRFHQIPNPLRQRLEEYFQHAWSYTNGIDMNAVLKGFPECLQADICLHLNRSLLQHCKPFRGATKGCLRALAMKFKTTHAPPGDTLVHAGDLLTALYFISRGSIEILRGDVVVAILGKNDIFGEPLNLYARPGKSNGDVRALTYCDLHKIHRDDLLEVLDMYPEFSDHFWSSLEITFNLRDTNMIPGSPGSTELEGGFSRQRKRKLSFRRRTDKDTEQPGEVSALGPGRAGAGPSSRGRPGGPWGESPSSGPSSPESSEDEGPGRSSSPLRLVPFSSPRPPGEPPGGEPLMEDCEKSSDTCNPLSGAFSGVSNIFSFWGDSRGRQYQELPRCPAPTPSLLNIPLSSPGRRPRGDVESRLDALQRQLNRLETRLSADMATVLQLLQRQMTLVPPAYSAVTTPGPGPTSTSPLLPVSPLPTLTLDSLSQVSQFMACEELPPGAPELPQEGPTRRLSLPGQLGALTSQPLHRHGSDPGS

| Structure (SMILES) | hERG current change (%, negative = inhibition) at 1uM [%] |
| --- | --- |
| CCSc1nnc(NC(=O)c2ccc(S(=O)(=O)N(C)C)cc2)s1 | 13.5 |
| CCOc1ccccc1NC(=O)c1ccccc1NC(=O)c1ccco1 | 13.4 |
| Cc1ccc(NC(=O)CSc2nccn2C)cc1F | 6.26 |
| Cc1ccc(Sc2ccc(NC(=O)CCN3C(=O)NC4(CCCC4)C3=O)cc2)c(C)c1 | 10.8 |
| Cc1c(Cl)cccc1NC(=O)CSc1ncnc2c1cnn2CCO | 12.5 |
| Cl.O=C(NCCCCNC(=O)c1cccnc1)c1cccnc1 | -3.76 |
| Cc1ccc(-c2nc3ccccc3o2)cc1NC(=S)NC(=O)c1cccs1 | 11.2 |
| O=C(N1CCOCC1)n1nnc2ccccc21 | 14.4 |
| CC(C)N(Cc1nccn1C)C(=O)CC1C(=O)NCCN1Cc1ccc(F)c(F)c1 (centres unmarked) | 12.3 |
| O=C(NC(Cc1ccccc1)C(=O)O)/C(=C\c1ccc([N+](=O)[O-])cc1)NC(=O)c1ccco1 (centres unmarked) | 8.54 |
| O=C(CN1CCCCC1)N1CCc2ccccc21 | 5.5 |
| CCCC[C@@H]1C[C@H]1[C@@H](NC(=O)c1ccco1)c1ccccc1C(F)(F)F | 10.3 |
| CC(=O)N1c2ccc(S(=O)(=O)N3CCOCC3)cc2CC1C (centres unmarked) | 10.3 |
| COc1ccc(CNC(=O)C2CCCN(S(=O)(=O)c3ccc4c(c3)CCCN4C(C)=O)C2)cc1 (centres unmarked) | 7.19 |
| O=C(Cc1ccccc1)NCCc1ccc(Cl)cc1Cl | -9.38 |
| CCC1Oc2ccccc2N(CC(=O)Nc2ccc3c(c2)OCCO3)C1=O (centres unmarked) | 9.15 |
| COc1ccccc1S(=O)(=O)Cc1ccc(C(=O)NCC(OC)OC)o1 | 11.3 |
| O=C(O)c1ccccc1-c1ccccc1C(=O)Nc1ccccc1 | 10.8 |
| Cc1nc(NS(=O)(=O)c2ccccc2)sc1C(=O)NNS(=O)(=O)c1ccccc1 | 13 |
| COc1ccc(CC(=O)Nc2ccc3c(C(F)(F)F)cc(=O)oc3c2)cc1OC | 1.32 |
| COc1cc(C(=O)Nc2ccc3nc4n(c(=O)c3c2)CCCCC4)cc(OC)c1OC | -1.94 |
| NC(=O)c1nsc(C(=O)N(Cc2ccc(F)cc2)C(C(=O)NC2CCCC2)c2ccco2)c1N (centres unmarked) | -3.79 |

| Structure (SMILES) | hERG current change (%, negative = inhibition) at 1uM [%] |
| --- | --- |
| COc1ccc(NC(=O)Nc2cccc3cccnc23)cc1 | 8.71 |
| CCN1CCN(C(=O)Nc2ccc(OC)cc2OC)CC1 | 3.01 |
| COc1ccc([N+](=O)[O-])cc1Nc1c2ccccc2nc2ccccc12 | 14.9 |
| CCOc1ccc(C2C(C(=O)OC)=CN(C(C)c3ccccc3)C=C2C(=O)OC)cc1 (centres unmarked) | 8.81 |
| CCN1CCN(C(c2cccs2)C(C)NS(=O)(=O)c2ccccc2)CC1 (centres unmarked) | 12.8 |
| CCSCc1nnc(SCC(=O)Nc2nc(C)cs2)n1C | -0.624 |
| CN(C(=O)COC(=O)Cn1cnc2c1c(=O)n(C)c(=O)n2C)C1(C#N)CCCCC1 | 12 |
| O=C(O)COCC(=O)Nc1ccc(Oc2ncnc3cc(Cl)ccc23)nc1 | 14.5 |
| COC(=O)c1cccc(C23CC4(C2)[C@H](CN(Cc2ccc(-c5ccccc5)cc2)[C@@H]4c2ccccc2)C3c2ccc(Cl)nc2)c1 (some centres unmarked) | -4.71 |
| O=S(=O)(Nc1ccc(Cc2ccncc2)cc1)c1ccc(Cl)c(Cl)c1 | -9.03 |
| CCC(=O)N1C(C(=O)NCc2ccc(OC)cc2)CSC1c1ccc(OC)cc1 (centres unmarked) | 3.53 |
| CC1CCC2C(C1)OS(=O)(=O)NC2(C)C (centres unmarked) | 17.6 |
| CN(C)c1ccc(C(=O)NCc2ccc3c(c2)OCO3)cc1 | 13.1 |
| Cc1ccc(/C=C2/NC(=O)[C@H](C)NC2=O)cc1 | 10.1 |
| O=C1NC2=C(C(=O)CCC2)C(c2ccc3ncccc3c2)N1 (centres unmarked) | -0.497 |
| COc1ccc(S(=O)(=O)N2CCN(C(=O)N3CCOCC3)C2C)cc1 (centres unmarked) | 11.2 |
| Cl.O.O=C1CC(=C2c3ccccc3-c3ccccc32)C(=O)N1CCCCN1CCN(c2ccccc2)CC1 | 3.34 |
| Cc1ccc(N2CC(C(=O)NCCc3ccc(S(N)(=O)=O)cc3)CC2=O)cc1 (centres unmarked) | 16.1 |
| Cc1cc(C)c(NC(=O)/C(=C/c2ccccc2)c2ccccc2)c(C)c1 | 9.35 |
| CCN(CC)S(=O)(=O)c1ccc(C(=O)Nc2ccc3c(c2)OCO3)cc1 | 6.7 |
| Cc1ccc(S(=O)(=O)N(C)c2ccc(OCC(=O)NC3=NCCS3)cc2)cc1 | 4.66 |
| O=C1CC(C(=O)Nc2ccccc2C(=O)O)C(c2ccccc2)O1 (centres unmarked) | 6.56 |

From paper PMC4336329 (PLoS ONE, 2015)
